Data as given in PubChem BioAssay AID1508624 (National Center for Advancing Translational Sciences (NCATS), 2021).
About 120 (0.25%) of roughly 48,000 compounds were called active. Not shown: some 4% with an inconclusive outcome. Calls follow the shape of the dose curve; as a rule, active = well fitted activation curve with a large enough effect; inconclusive = small, poorly fitted or top-dose-only effect, or another doubt; inactive = no such curve, though single readings can be large or run the other way. The list shows a part of the results.

Experiment: Primary qHTS for Identification of Small Molecule Activators of Huntingtin-Antisense Promoter Activity; also: nearly all actives have a fitted effect of over 55% in size
Conditions: HEK293 HTT-AS promoter firefly luciferase reporter, 24 h; series mostly up to 57.5 µM; activity change, positive = activation: at the top concentration
Excerpt: Assay Provider: Russell L. Margolis M.D.
Department Neurology, Johns Hopkins University School of Medicine, Baltimore, MD
Huntington's Disease (HD) is a neurodegenerative disorder caused by a CAG repeat expansion in exon 1 of huntingtin (HTT). While there are currently no disease-modifying treatments for HD, recent efforts have focused on development of nucleotide-based therapeutics to lower HTT expression. As an alternative to siRNA or oligonucleotide methods, we hypothesized that suppression of HTT expression might be accomplished by small molecules that either (1) directly decrease HTT expression by suppressing HTT promoter activity or (2) indirectly decrease HTT expression by increasing the promoter activity of HTT-AS, the gene antisense to HTT that appears to inhibit expression of HTT.
We developed and employed a high throughput screen for modifiers of HTT and HTT-AS promoter activity using luminescent reporter HEK293 cells; of the 52,041 compounds tested, we identified 898 replicable hits. We used a rigorous stepwise approach to assess compound toxicity and the capacity of the compounds to specifically lower huntingtin protein in 5 different cell lines, including HEK293 cells, HD lymphoblastoid cells, mouse primary neurons, HD iPSCs differentiated into cortical-like neurons, and HD hESCs. We found no compounds which were able to lower huntingtin without lowering cell viability in all assays, though the potential efficacy of a few compounds at non-toxic doses could not be excluded.
SEQUENCE No. (1, 2, 3, etc.); […] (e.g., Cells, Incubation, Reagent, etc.); VALUE and DESCRIPTION.
1; Reagent; 4 uL; 2,500 Hek293 luciferase reporter cells per wells
3; Compound; 23 nL; Control inhibitor / compound library
5; Reagent; 2.5 uL; Firefly Luc reagent; Dual-Glo Luciferase Reporter Assay System (Promega)
6; Time; 10 min; room temperature incubation
7; Detection; Luminescence; FLuc
NOTES (numbers refer to sequence above)
1; High-throughput screening, measuring luminescence from a Hek293 luciferase reporter, was performed in 1,536 well white-walled tissue-culture treated plates. 2,500 cells were plated in 4 µL of Opti-MEM per well using a Multidrop Combi Reagent Dispenser (ThermoFisher).
2; Assay plates were cultured for 24 hours.
3; Control inhibitor (PTC124; final concentration of 50 uM) and compound library (at final concentrations of 460 nM - 57.5 uM) were added to the assay plate using the Kalypsis Pintool Robotic System equipped with 1536 pinheads.
4; Cells were then incubated for 24 hours at 37 degrees C prior to luminescence measurements.
5; In all cases, luminescence was measured using the Dual-Glo Luciferase Reporter Assay System (Promega) following the manufacturer's instructions.
6; Room temperature incubation.
7; Luminescence signal was obtained using the PerkinElmer ViewLux plate reader. Results were normalized to vehicle control (0% activity) and zero RLU (-100% activity).

Activity change, positive = activation, inactive:
COc1ccccc1-c1noc(-c2ccc(NCc3cccnc3)c([N+](=O)[O-])c2)n1 -0.901%, NC(=O)CSc1nnnn1-c1cccc(O)c1 -16.2%, COc1cccc(CN2C(=O)C3(SCC(=O)N3c3ccc(C(C)C)cc3)c3ccccc32)c1 (stereo unspecified) -35.1%, Cn1c(SCc2ccccc2Cl)nc2c([nH]c3ccccc32)c1=O -12.9%, CCOc1ccc(C(=O)Nc2ccc3oc(-c4ccc(Br)cc4)nc3c2)cc1 -8.21%, CCOC(=O)c1ccc(N2C(=O)Cc3cc(OCC)c(OCC)cc3C2c2ccccc2)cc1 (stereo unspecified) 12.2% [at 11.5 µM, percent change from vehicle, -100% = no light], O=C(c1ccc2c(c1)OCCO2)N(Cc1cccnc1)c1nc2c(F)cc(F)cc2s1 -20%, COc1cccc(CNS(=O)(=O)c2ccc(-c3cc(C(F)(F)F)on3)s2)c1 -21.4%, COc1ccc(N(CC(=O)Nc2cc(Cl)ccc2C)S(=O)(=O)c2c(C)noc2C)cc1 -48.1%, CCOc1ccc(NS(=O)(=O)c2ccc3[nH]cc(C(=O)N4CCCCCC4)c(=O)c3c2)cc1 -11.6%, COc1ccc(Cc2nc3ccc(C(=O)NCCCN4CCN(C)CC4)cc3o2)cc1 -8.88%, Cc1ccccc1-c1nc(SCC(=O)NCC2CCCO2)c2c(=O)n(C)c(=O)n(C)c2n1 (stereo unspecified) -6.43%, COc1ccc(N2CCN(C(=O)c3sc4nc5n(c(=O)c4c3C)CCC5)CC2)cc1 -9.88%, COCCNC(=O)c1ccc2c(=O)n(CCOC)c(SCC(=O)c3c[nH]c4ccccc34)nc2c1 -22%, Cc1cccc(CCNC(=O)CCc2c(C)nc3ncnn3c2C)c1 -1.77%, O=C(COc1ccc(F)cc1)Nc1ccccc1OCc1cc(=O)n2ccccc2n1 -2.05%, COc1ccc(-c2noc(-c3ccc(NC4CCCCC4)c([N+](=O)[O-])c3)n2)cc1 -7.98%, CCC1CCc2nc3sc(C(=O)Nc4cccc(C(F)(F)F)c4)c(N)c3cc2C1 (stereo unspecified) -24.2%, CCc1nn2c(=O)cc(COC(=O)c3ccc(NC(=O)C4CCCCC4)cc3)nc2s1 19.4%, CCCc1cc(=O)oc2cc(C)c3c(C(C)(C)C)coc3c12 -12.4%, O=C(CCn1c(=O)c2cccn2c2cccnc21)NCc1ccccc1F -0.163%, COc1cccc(NC(=O)c2ccc3[nH]c(C)cc(=O)c3c2)c1 2.98%, NC(=O)c1ccccc1O -7.2%, COC(=O)c1ccc(Cn2nc(-c3ccc(C)cc3)ccc2=O)cc1 -11.6%, Cc1ccc(CCNC(=O)c2cc(C)nc3c2c(C)nn3-c2ccc(C)cc2)cc1 -12.3%, O=C(Nc1ccc(C(F)(F)F)cc1)C1CCN(c2cnccn2)CC1 -30.2%
